Measurements published in the supplement of paper PMC7266297.
Structures can show the parent of a compound that is named as a salt. This is one part of the list. Single values are uncertain, as repeats are few or missing.

What was measured:
KB-3-1 = test: growth inhibition relative to DMSO control (SRB); cervical cancer cells: KB-3-1 is the parent and KB-V1 overexpresses MDR1; SRB is the sulforhodamine B stain; higher = more growth inhibition; details: 1 µM; 72 h
KB-V1 = test: as above; details: 1 µM; 72 h
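Also: Read-out is SRB optical density at 490 nm, with the control being wells given 0.5% DMSO vehicle, and compound added one day after cells were plated.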

Compound | growth inhibition (KB-3-1) [%] | growth inhibition (KB-V1) [%]
O=C(Nc1cccc2cccnc12)c1ccc(N2C(=O)[C@@H]3[C@H](C2=O)[C@@H]2C=C[C@H]3C2)cc1 [IWR-1-endo] | < 0 | 4.8
O=S(=O)(NCCNC/C=C/c1ccc(Br)cc1)c1cccc2cnccc12 | 27.9 | 11.6
Cc1ccc(NC(=O)c2ccc(CN3CCN(C)CC3)cc2)cc1Nc1nccc(-c2cccnc2)n1 [Imatinib (STI571)] | 25.1 | 9.57
COc1ccc(NS(=O)(=O)c2sc3ccc(Cl)cc3c2C)cc1N1CCNCC1 | < 0 | 10.8
CC(C)[C@H]1C(=O)N[C@@H](CCCNC(=N)N)C(=O)NCC(=O)N[C@@H](CC(=O)O)C(=O)N[C@H](Cc2ccccc2)C(=O)N1C [Cilengitide] | 36.2 | 46.6
CCC(=O)Nc1cccc(Oc2nc(Nc3ccc(N4CCN(C)CC4)cc3OC)ncc2Cl)c1 | < 0 | < 0
Oc1ccc(-c2nc(-c3ccc(F)cc3)c(-c3ccncc3)[nH]2)cc1 | 15.6 | 17.8
N#CCNC(=O)c1ccc(-c2ccnc(Nc3ccc(N4CCOCC4)cc3)n2)cc1 | < 0 | 40.2
CC(C)C[C@H](NC(=O)[C@@H](NC(=O)c1cccc(-c2ccccc2)n1)[C@@H](C)O)B(O)O | 72.5 | 52
Cc1cnc(-c2cc(N3CCN(C(=O)CCS(C)(=O)=O)CC3)ncc2Cl)c(C)c1 | 11.4 | 45.6
CC(C)N(C[C@H]1O[C@@H](n2cnc3c(N)ncnc32)[C@H](O)[C@@H]1O)[C@H]1C[C@@H](CCc2nc3cc(C(C)(C)C)ccc3[nH]2)C1 | < 0 | 5.84
CC(=O)O/N=C1\C(=O)N(Cc2cc(Cl)ccc2Cl)c2ccc(Cl)cc21 | 5.75 | < 0
Nc1nc(Nc2ccc(S(N)(=O)=O)cc2)nn1C(=O)c1c(F)cccc1F | 70.6 | 44.8
CN(C)CCC(c1ccc(Cl)cc1)c1ccccn1 (configuration not stated) [Chlorpheniramine Maleate] | 52.5 | 24
CCOc1ccc(Cc2cc([C@@H]3O[C@H](CO)[C@@H](O)[C@H](O)[C@H]3O)ccc2Cl)cc1 [Dapagliflozin] | 23.8 | 10.6
CCc1nc(N)nc(N)c1-c1ccc(Cl)cc1 [Pyrimethamine] | 38.5 | 16.2

Compound | growth inhibition (KB-3-1) [%] | growth inhibition (KB-V1) [%]
CN(Cc1cnc2nc(N)nc(N)c2n1)c1ccc(C(=O)N[C@@H](CCC(=O)O)C(=O)O)cc1 [Methotrexate] | 49.1 | 35.3
c1ccc2c(CC3=NCCN3)cccc2c1 [Naphazoline HCl] | 27.8 | 11.8
CNC(=O)c1ccc(N2C(=S)N(c3ccc(C#N)c(C(F)(F)F)c3)C(=O)C2(C)C)cc1F [Enzalutamide (MDV3100)] | 40.2 | 39.2
COCCOC(=O)C1=C(C)NC(C)=C(C(=O)OC(C)C)C1c1cccc([N+](=O)[O-])c1 (configuration not stated) [Nimodipine] | 48.8 | 21.1
CC#CCn1c(N2CCC[C@@H](N)C2)nc2c1c(=O)n(Cc1nc(C)c3ccccc3n1)c(=O)n2C [Linagliptin] | 0.562 | 3.17
Nc1ccc(-c2ccc3ncc4ccc(=O)n(-c5cccc(C(F)(F)F)c5)c4c3c2)cn1 [Torin 2] | 91.4 | 93.6
CNCc1ccc(-c2cc(-c3nc(-c4ccc(S(=O)(=O)C(C)C)cc4)cnc3N)on2)cc1 | 60.8 | 48.2
COc1cc(OC2CCN(C)CC2)ccc1Nc1ncc2c(n1)n(C1CCCC1)c(=O)n2C | < 0 | 27.9
Cn1cnc(N)c2ncnc1-2 [3-Methyladenine] | < 0 | < 0
CCNC(=O)c1[nH]nc(-c2cc(Cl)c(O)cc2O)c1-c1ccc(OC)cc1 | 58.1 | 17.9
Cc1ccc(C(=O)Cn2c3c(sc2=N)CCCC3)cc1 [Pifithrin-α (PFTα)] | < 0 | 9.02
CCOc1cc(CC(=O)N[C@@H](CC(C)C)c2ccccc2N2CCCCC2)ccc1C(=O)O [Repaglinide] | 9.03 | 42.2
O=C(/C=C/c1ccc(O)c(O)c1)OCCc1ccccc1 [Caffeic Acid Phenethyl Ester] | 64.1 | 22.8
CNC(=C[N+](=O)[O-])NCCSCc1ccc(CN(C)C)o1 [Ranitidine] | 46.6 | 22.5
CO[C@H]1C[C@@H]2CC[C@@H](C)[C@@](O)(O2)C(=O)C(=O)N2CCCC[C@H]2C(=O)O[C@H]([C@H](C)C[C@@H]2CC[C@@H](OCCO)[C@H](OC)C2)CC(=O)[C@H](C)/C=C(\C)[C@@H](O)[C@@H](OC)C(=O)[C@H](C)C[C@H](C)/C=C/C=C/C=C/1C [Everolimus (RAD001)] | 77.5 | 69.4
